T1: HCC1954 cells highly expressing human 5T4 (Homo sapiens, UniProt Q13641)
T1 construct: a human breast cancer cell strain HCC1954 (ATCC, CRL-2338) highly expressing human 5T4; host or cells: HCC1954
T1 sequence (Q13641 32-420): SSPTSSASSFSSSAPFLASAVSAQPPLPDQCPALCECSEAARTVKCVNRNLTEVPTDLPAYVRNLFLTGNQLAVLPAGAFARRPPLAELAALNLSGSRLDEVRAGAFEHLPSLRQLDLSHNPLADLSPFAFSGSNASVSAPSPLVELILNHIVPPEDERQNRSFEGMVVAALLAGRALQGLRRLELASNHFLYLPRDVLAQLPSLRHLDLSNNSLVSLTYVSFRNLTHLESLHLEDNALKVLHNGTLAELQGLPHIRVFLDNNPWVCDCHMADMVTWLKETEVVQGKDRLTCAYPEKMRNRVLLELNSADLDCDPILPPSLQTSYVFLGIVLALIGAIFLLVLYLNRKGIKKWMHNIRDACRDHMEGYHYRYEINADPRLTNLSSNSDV

B1: PR004432: anti-5T4 HCAb antibody, SEQ ID NO: 69 (antibody)
heavy: EVQLQQSGPGLVKPSQTLSLTCAISGDSVSNNYAAWNWIRQSPSRGLEWLGRTYYRSKWYNDYAVSVKSRITINPDTSKNQFSLQLNRVTPEDTAVYYCARDNYYGSGSPPVDALDIWGQGTMVTVSS[not shown - human IgG1 Fc]
B2: PR004432-ADC (conjugate)
heavy: B1 heavy
B3: PR002129: anti-ROR1 antigen-binding protein with scFv-Fc dimer structure, SEQ ID NO: 71 (protein)
chain: QVQLVQSGGGVVQPGRSLRLSCAASGFTFSSYGMHWVRQAPGKGLEWVAVIWYDGSNKDYADSVKGRFTISRDTSKNTLYLQMNSLRAEDTAVYYCAREQARSFDLWGRGTLVTVSSGGGGSGGGGSGGGGSDIQLTQSPYSLSASVGDRVTITCRASQTINNWLAWYQQKPGKAPKLLIYKASSLESGVPSRFSGSGSGTEFTLTISSLQPDDFATYYCQQYKLYSPMYTFGQGTKVEIKGGGAS[not shown - human IgG1 Fc]
modifications: PR002129 SCFV

How the values were obtained:
[1] = Melting temperature (Tm) by Uncle protein stability platform; format: physicochemical
Source text: Unchained Labs (Uncle) is a multifunctional one-stop protein stability analysis platform that characterizes protein stability by total fluorescence, static light scattering (SLS) and dynamic light scattering (DLS) assay methods. The parameters of melting temperature (Tm), aggregation temperature (Tagg) and particle size (diameter) can be obtained simultaneously for the same group of samples. In this example, an “Tm & Tagg with optional DLS” application of Uncle was selected for the determination. 9 μL of sample was added to a Uni tube, and the temperature was set to gradually increase from 25° C. to 95° C. at a gradient of 0.3° C./min. Four acquisitions of data were performed at the beginning and end of DLS assay, each for 5 s. After the experimental run was finished, the Tm value of each sample was calculated according to a barycentric mean (BCM) formula using the Uncle analysis software, the Tagg value was calculated from a curve (aggregation curve) of fluorescence intensity of SLS at the wavelength of 266 nm or 473 nm, and the particle size and dispersion of the samples were calculated from DLS related functions.
This example is to study the influence of the disulfide bond of Cys-220 on molecular structural stability. […]

[2] = target: T1, HCC1954 cells highly expressing human 5T4; experiment: FACS binding to cells highly expressing 5T4; settings: flow cytometry FACS
Procedure: Specifically, the cell density was adjusted to 1×10^6 cells/mL. The cells were seeded in a 96-well V-bottom plate (Corning, #3894) at 100 μL/well, followed by the addition of test antibodies diluted in a 3-fold gradient at a concentration that was 2 times the final concentration, each at 100 μL/well. The cells were incubated at 4° C. for 1 h away from light. Thereafter, the cells in each well were rinsed twice with 100 μL of pre-cooled PBS, and centrifuged at 500 g at 4° C. for 5 min, and then the supernatant was discarded. Thereafter, a fluorescent secondary antibody (Alexa Fluor 488-conjugated AffiniPure Goat Anti-Human IgG, Fcγ Fragment Specific, Jackson ImmunoResearch Inc., #109-545-098, diluted in a 1:500 ratio) was added at 100 μL/well, and the plate was incubated at 4° C. for 30 min away from light. The cells in each well were then rinsed twice with 100 μL of pre-cooled PBS and centrifuged at 500 g at 4° C. for 5 min, and then the supernatant was discarded. Finally, the cells in each well were resuspended in 200 μL of pre-cooled PBS. Fluorescence signal values were read using a BD FACS CANTOII flow cytometer, and the data were processed and analyzed using FlowJo v10 (FlowJo, LLC) software.

[3] = system: NCI-H929 cells; experiment: Cytotoxic killing experiment (Example 9.5), NCI-H929; settings: 72 h, CellTiter-Glo; proteins up to 10 nM, mc-vc-PAB-MMAE up to 20 nM
Procedure: (§1) The HEK293T-hBCMA, NCI-H929, HEK293T and SNU-16 cells were seeded in 96-well plates (Perkin Elmer, #6005225) respectively, with the following seeded cell number: 2500 cells/50 μL/well (HEK293T-hBCMA), 5000 cells/50 μL/well (NCI-H929), 2500 cells/50 μL/well (HEK293T), and 5000 cells/50 μL/well (SNU-16). Then, the plates were incubated overnight at 37° C. with 5% CO2. Then, a test sample serially pre-diluted was added at 50 μL/well. PR004433, PR004433-ADC and PR004432-ADC were diluted at a 3-fold concentration gradient from the highest final concentration of 10 nM, and mc-vc-PAB-MMAE was diluted at a 3-fold concentration gradient from the highest final concentration of 20 nM. In addition, a well without the test sample was set as a control well. Thereafter, the plates were incubated at 37° C. with 5% CO2 for 72 h, a CellTiter-Glo cell viability detection reagent (Promega, #G7573) was added, then the plates were incubated at room temperature for at least 10 min to obtain stable luminescence signals, and the luminescence values were detected using a microplate reader. The cell viability was calculated based on the luminescence values by the following formula:
Cell viability (%)=(A/B)×100%
In which, A=experimental well (target cells+test sample+medium); B=control well (target cells+medium)
(§2) The data were processed and analyzed by plotting using GraphPad Prism 8 software, and binding curves of the antibodies to target cells, EC50 values and other parameters were obtained through four-parameter nonlinear fitting.
In this example, the method described in 0 was used to study the specific cell killing activity of antigen-binding proteins PR006468 (including a mouse IgG2c hinge region), PR004433 (including a human IgG1 hinge region) and coupling products PR006468-ADC and PR004433-ADC thereof against tumor cells NCI-H929 (ATCC, CRL-9068) highly expressing human BCMA.
In this example, the method described in 0 was used to study the specific cell killing activity of PR005744 and a coupling product PR005744-ADC thereof against tumor cells NCI-H929 (ATCC, CRL-9068) highly expressing human BCMA.

[4] = system: HEK293T-hBCMA cells; experiment: Cytotoxic killing experiment (Example 9.5), HEK293T-hBCMA; settings: 72 h, CellTiter-Glo; proteins up to 10 nM, mc-vc-PAB-MMAE up to 20 nM
Procedure: as §1, with “formula: […]” for “formula:”
as §2

[5] = system: HCC1954 cells; experiment: Cytotoxic killing experiment (Example 8.5), HCC1954; settings: 72 h, CellTiter-Glo; proteins up to 30 nM, mc-vc-PAB-MMAE up to 60 nM
Procedure: This example was to study the cell killing activity of the anti-5T4 antibody coupling product PR004432-ADC against a human breast cancer cell strain HCC1954 (ATCC, CRL-2338) highly expressing human 5T4.
The HCC1954 cells were seeded in a 96-well plate (Perkin Elmer, #6005225) at 4000 cells/50 μL/well and incubated overnight at 37° C. with 5% CO2. Then, a test sample serially pre-diluted was added at 50 μL/well. PR004432, PR004432-ADC and PR004433-ADC were diluted at a 3-fold concentration gradient from the highest final concentration of 30 nM, and mc-vc-PAB-MMAE was diluted at a 3-fold concentration gradient from the highest final concentration of 60 nM. In addition, a well without the test sample was set as a control well. Thereafter, the plates were incubated at 37° C. with 5% CO2 for 72 h, a CellTiter-Glo cell viability detection reagent (Promega, #G7573) was added, then the plates were incubated at room temperature for at least 10 min to obtain stable luminescence signals, and the luminescence values were detected using a microplate reader. The cell viability was calculated based on the luminescence values by the following formula:
Cell viability (%)=(A/B)×100% […]
as §2

[6] = Coupling product components (DAR) by HIC-HPLC; settings: coupling product; Experiment 20210202-2: protein 6.5 mg/ml, TCEP 2.3 x, VcMMAE 7.0 x
Procedure: In this example, analytical hydrophobic interaction chromatography (HIC) was used to analyze the protein sample for purity and hydrophobicity. […] The program for HPLC was set: a linear gradient from 100% buffer A (25 mM phosphate buffer, 1.5 M ammonium sulfate ((NH4)2SO4), pH 7.0-7.2) to 100% buffer B (20 mM phosphate buffer, 20% isopropyl alcohol (IPA), pH 7.0-7.2) over about 22 min; flow rate: 0.7 mL/min; protein sample concentration: 1 mg/mL; and injection volume: 20 μL. The detection wavelength was 280 nm. Operation was performed at room temperature. After being recorded, the chromatogram was integrated using ChemStation software and relevant data were calculated. An analysis was generated, with the retention time of the components with different molecular sizes in the sample reported; the number of coupling molecules carried by different components of the coupling product could be inferred by different retention time.

[7] = target: T2, PanC-1 cells highly expressing human ROR1 (Homo sapiens, UniProt Q01973); experiment: FACS binding to cells highly expressing ROR1; settings: flow cytometry FACS
T2 construct: tumor cells PanC-1 (ATCC, CRL-1469) highly expressing human ROR1; host or cells: PanC-1
T2 sequence (Q01973 30-937): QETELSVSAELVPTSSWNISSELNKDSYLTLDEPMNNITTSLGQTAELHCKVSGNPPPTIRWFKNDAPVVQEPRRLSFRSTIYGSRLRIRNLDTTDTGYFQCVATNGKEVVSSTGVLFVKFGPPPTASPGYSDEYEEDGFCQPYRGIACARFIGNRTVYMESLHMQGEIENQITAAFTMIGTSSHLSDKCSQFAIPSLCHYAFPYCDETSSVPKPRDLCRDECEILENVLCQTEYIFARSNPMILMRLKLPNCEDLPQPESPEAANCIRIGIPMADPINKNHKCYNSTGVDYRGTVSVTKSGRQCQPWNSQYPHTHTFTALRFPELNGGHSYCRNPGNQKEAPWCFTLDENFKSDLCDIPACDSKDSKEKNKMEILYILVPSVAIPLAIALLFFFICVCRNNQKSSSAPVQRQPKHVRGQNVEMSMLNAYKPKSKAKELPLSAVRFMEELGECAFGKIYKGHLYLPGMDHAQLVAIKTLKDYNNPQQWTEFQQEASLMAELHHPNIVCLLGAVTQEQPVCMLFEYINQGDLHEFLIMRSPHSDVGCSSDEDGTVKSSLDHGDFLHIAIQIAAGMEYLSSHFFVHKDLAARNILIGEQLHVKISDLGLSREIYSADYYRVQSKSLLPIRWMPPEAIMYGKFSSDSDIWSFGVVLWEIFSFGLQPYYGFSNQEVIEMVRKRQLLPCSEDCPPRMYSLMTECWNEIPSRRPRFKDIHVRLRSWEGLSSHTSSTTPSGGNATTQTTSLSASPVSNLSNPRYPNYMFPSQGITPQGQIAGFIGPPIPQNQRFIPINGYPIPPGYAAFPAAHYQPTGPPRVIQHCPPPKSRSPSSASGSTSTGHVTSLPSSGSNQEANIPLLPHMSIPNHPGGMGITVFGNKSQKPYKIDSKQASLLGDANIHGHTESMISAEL
Procedure: The binding ability of the antigen-binding protein to tumor cells PanC-1 (ATCC, CRL-1469) highly expressing human ROR1 was determined by flow cytometry FACS. Specifically, the cells were digested and resuspended in a DMEM complete medium, and the cell density was adjusted to 1×10^6 cells/mL. The cells were seeded in a 96-well V-bottom plate (Corning, #3894) at 100 μL/well, followed by the addition of test binding proteins diluted in a 3-fold gradient at a concentration that was 2 times the final concentration, each at 100 μL/well. The cells were incubated at 4° C. for 1 h away from light. Thereafter, the cells in each well were rinsed twice with 100 μL of pre-cooled PBS, and centrifuged at 500 g at 4° C. for 5 min, and then the supernatant was discarded. Thereafter, a fluorescent secondary antibody (Alexa Fluor 488-conjugated AffiniPure Goat Anti-Human IgG, Fcγ Fragment Specific, Jackson ImmunoResearch Inc., #109-545-098, diluted in a 1:500 ratio) was added at 100 μL/well, and the plate was incubated at 4° C. for 30 min away from light. The cells in each well were then rinsed twice with 100 μL of pre-cooled PBS and centrifuged at 500 g at 4° C. for 5 min, and then the supernatant was discarded. […] Fluorescence signal values were read using a BD FACS CANTOII flow cytometer, and the data were processed and analyzed using FlowJo v10 (FlowJo, LLC) software.

Molecule | Tm1 (minimum melting temperature) [1] [°C] | binding activity to HCC1954 cells [2] | cytotoxic killing against NCI-H929 cells [3] | cytotoxic killing against HEK293T-hBCMA cells [4] | cytotoxic killing against HCC1954 cells [5] | Average DAR [6] | binding activity to PanC-1 cells [7]
B1 | 70.66 | strong specific binding activity | – | – | – | – | –
B2 | 70.43 | strong specific binding activity | cannot produce effective killing | cannot produce effective killing | effective and specific cytotoxic killing | – | –
B3 | – | – | – | – | – | 2.07 | strong specific binding activity

— patent US20240050583A1, “PROTEIN-DRUG CONJUGATE AND SITE-SPECIFIC CONJUGATING METHOD” (HARBOUR BIOMED (SHANGHAI) CO., LTD, priority 2020, published 2024)
